{
  "source": "patent US20150011394A1",
  "about": "(priority 2012, published 2015)",
  "details_in_all_cases": "in vivo",
  "key": {"Streptomyces scabies": {"test_system": "Streptomyces scabies", "procedure": "Trial Locations were Sahiwal, Faisalabad, and Lahore in Pakistan.\nPotato tubers were treated once at the time of sowing. The tuber quantity (seed) was determined according to plot size and weighed out separately for each treatment. Then product quantity was calculated and measured according to weight of tuber for each treatment on the basis of dose rate per 100 kg tuber. The water volume was calibrated to give proper coverage. The product was mixed in the calibrated volume of water for each treatment separately. The tubers were spread on a plastic sheet, sprayed thoroughly, dried, turned to the other side and sprayed thoroughly again. It was ensured that every seed has been covered with the product. After drying the tubers were sown in the marked plots. Preferably medium sized Potato tubers were used for sowing. In order to ensure disease infestation, infected tubers having a disease incidence of about 10% Potato Tuber Bacterial Scab were used.\nAt harvesting, the percentage of disease of potatoes for each treatment was determined and the efficacy was calculated according to ABBOTT (% efficacy). 0% means an efficacy which corresponds to that of the control, while an efficacy of 100% means that no disease was observed."}, "[1]": {"test_system": "Pseudomonas syringae pv. lachrymans", "excerpt": "The cucumber plants were inoculated at BBCH13 stage (third true leaf fully unfolded stage) on potted plants protected in preventative."}, "[2]": {"test_system": "Pseudomonas syringae pv. tomato"}, "[3]": {"test_system": "Xanthomonas campestris pv. citri"}, "[4]": {"test_system": "Pseudomonas syringae pv. lachrymans", "excerpt": "The cucumber plants were inoculated at BBCH14 stage (4th true leaf fully unfolded stage) on potted plants protected in preventative.", "remark": "listed apart in the source"}},
  "note": "Several values for one entry are separate records, joined by “and”; a condition that tells them apart may be missing. Identical values can stand only once.",
  "data": [
    {"molecule": "OCC1=C[C@H](N[C@H]2C[C@H](CO)[C@@H](O[C@@H]3O[C@H](CO)[C@@H](O)[C@H](O)[C@H]3O)[C@H](O)[C@H]2O)[C@H](O)[C@@H](O)[C@@H]1O", "note": "[Validamycin, reference compound]", "values": [
      {"measurement": "Faisalabad Efficacy [% Abbott]", "setting": "Streptomyces scabies", "value": 47, "unit": "% Abbott"},
      {"measurement": "Lahore Efficacy [% Abbott]", "setting": "Streptomyces scabies", "value": 65, "unit": "% Abbott"},
      {"measurement": "Sahiwal Efficacy [% Abbott]", "setting": "Streptomyces scabies", "value": 33, "unit": "% Abbott"}
    ]},
    {"molecule": "C=CCOC1=NS(=O)(=O)c2ccccc21", "note": "[PROBENAZOLE a.i., probenazole, reference compound]", "values": [
      {"measurement": "% efficacy (Abbott), severity on leaves", "setting": "[1]", "value": "74% and 61%"}
    ]},
    {"molecule": "[Cl-].[Cu+2].[Cu+2].[OH-].[OH-].[OH-]", "note": "[copper oxychloride]", "values": [
      {"measurement": "% efficacy (Abbott), severity index", "setting": "[2]", "value": 56.5, "unit": "%"},
      {"measurement": "Disease severity index", "setting": "[2]", "value": 101.3}
    ]},
    {"molecule": "N#Cc1ccccc1NC(=O)c1snc(Cl)c1Cl", "note": "[Isotianil, isotianil]", "values": [
      {"measurement": "% efficacy (Abbott), severity on leaves", "setting": "[1]", "value": "81% and 91%"},
      {"measurement": "Faisalabad Efficacy [% Abbott]", "setting": "Streptomyces scabies", "value": "86 % Abbott and 49 % Abbott and 57 % Abbott"},
      {"measurement": "Lahore Efficacy [% Abbott]", "setting": "Streptomyces scabies", "value": "79 % Abbott and 76 % Abbott and 77 % Abbott"},
      {"measurement": "Sahiwal Efficacy [% Abbott]", "setting": "Streptomyces scabies", "value": "100 % Abbott and 67 % Abbott"},
      {"measurement": "% efficacy (Abbott), incidence on leaves", "setting": "[3]", "value": 37, "unit": "%"},
      {"measurement": "% efficacy (Abbott), No. of lesions on 15 leaves", "setting": "[4]", "value": 78, "unit": "%"}
    ]}
  ]
}
